# Assay results: PubChem BioAssay AID445 (National Center for Advancing Translational Sciences (NCATS), 2006)
# Screen size: about 110,000 compounds; about 40 (0.04%) were called active. The inconclusive results got no clear call from the source; some entries with a clear call stand among them for comparison. Calls come from the whole dose curve; as a rule, active = well fitted curve in the direction sought with a large enough effect in the signal ratio (not every such curve was filed as active); inconclusive = small, poorly fitted or top-dose-only effect, or a change in a side signal; inactive = flat fitted curve, though single readings scatter; the % refers to the signal ratio. A potency beside an inconclusive call is a rough fit, not a confirmed value.
# Test: IkB Signaling;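 for IkBa stabilization activation: 0% = basal untreated cells and 100% = reference inhibitor full response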
# Details: ABC-DLBCL IkBa-CBG/CBR dual luciferase ratio (green luciferase fused to IkBa over red control in OCI-Ly3 lymphoma cells), 4 h; IkBa stabilization activation: at 57.1 µM (top of the series), scaled: untreated 0%, proteasome inhibitor 100% unless noted
# Summary of the method: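 Curves were fitted separately to fusion (green), unfused (red) and ratio luminescence, then classed by r2, magnitude and activity. Cells: OCI-Ly3, 4 h compound plus doxycycline at 37C; 10 uM MG-132 defined full response.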
# Potency is the fitted concentration of half-maximal effect.
SMILES,IkBa stabilization activation,Potency
O=C(Nc1ccccc1F)c1nc(S(=O)(=O)Cc2ccccc2F)ncc1Cl,inconclusive: -0.856% [signal inhibitor],
CCN(C(=O)c1noc2c1COc1ccc(C)cc1-2)c1cccc(C)c1,,inconclusive: 6.31 µM [signal inhibitor]
Clc1cccc(-n2ncc3c(NC4CCCCC4)ncnc32)c1,inconclusive: -1.33% [signal inhibitor],
CCOc1ccc(-c2nnc(SCC(=O)NC3CCCC3)nc2-c2ccc(OCC)c(OC)c2)cc1OC,inactive: -1.16%,
O=C(COc1ccc(Cl)cc1)NCc1nnc(SCC(=O)NCc2ccc3c(c2)OCO3)o1,inconclusive: 4.16% [signal inhibitor],
COc1ccc(C2c3c(oc4ccccc4c3=O)C(=O)N2c2ccc(C)cn2)cc1OC (stereo not drawn),inactive: -0.985%,
COc1cccc(Nc2ncc3nc(-c4cccs4)c(=O)n(-c4ccccc4)c3n2)c1,"inactive: -1.23% [at 11.4 µM, scaled: untreated 0%, proteasome inhibitor 100%]",
Cc1c(C(=O)Nc2ccc3c(c2)OCCO3)sc2nc(-c3ccccc3)cn12,inconclusive: -2.64% [signal inhibitor],
CC(C)(C)OC(=O)N1CCC(c2c(C(=O)NCCN3CCC(Cc4ccccc4)CC3)cnn2-c2cccc(Cl)c2)CC1,inconclusive: -6.56% [signal inhibitor],
O=C(NCc1ccc(Cl)cc1)C(=O)NCC(c1cccs1)S(=O)(=O)c1ccc(Cl)cc1 (stereo not drawn),inconclusive: 3.14% [signal inhibitor],
CCOC(=O)C1CCN(C(=O)c2cc3ccc4cccnc4c3[nH]2)CC1,,inconclusive: 25.1 µM [signal inhibitor]
COc1ccccc1CNC(=O)c1ccccc1NC(=O)c1nsc2ccccc12,inconclusive: 1.91% [signal inhibitor],
CCOC(=O)c1[nH]c2ccccc2c1NC(=O)c1ccccc1OCC,inconclusive: 16.1% [signal inhibitor],
O=C(Nc1ccc2c(c1)CCCN2C(=O)c1cccs1)c1cccc(C(F)(F)F)c1,inconclusive: 10.8% [signal inhibitor],
CCCCN1CC(c2nc3ccccc3n2CCCCOc2ccccc2C)CC1=O (stereo not drawn),,"inconclusive: 25.1 µM [signal inhibitor, partial curve]"
CCCN(Cc1cccs1)C(=O)Nc1cc(C)ccc1OC,inconclusive: 7.97% [signal inhibitor],
O=C(c1ccc2c(c1)N(Cc1ccc(Cl)cc1)C(=O)c1ccccc1S2(=O)=O)N1CCCCCC1,inconclusive: 2.15% [signal inhibitor],
C=CCn1c(SCC(=O)N2CCN(c3ccc(F)cc3)CC2)nnc1-c1cccs1,inconclusive: 3.6% [signal inhibitor],
Cc1cc(C)n2nc(SCc3nc4ccccc4[nH]3)nc2n1,inactive: 2.31%,
Oc1cccc(-c2nc3ccccc3s2)c1,inactive: 5.88%,
Cc1ccc(-c2onc(C)c2C)cc1S(=O)(=O)NCc1cccs1,inconclusive: 4.08% [signal inhibitor],
CC1(C)Cc2ccccc2-c2nnc(SCc3ccc(C#N)cc3)n21,inactive: 0.758%,
Cc1ccc(N2C(=O)C(CC(=O)Nc3ccc(F)cc3)N(CCC3=CCCCC3)C2=O)cc1 (stereo not drawn),inconclusive: 0.848% [signal inhibitor],

SMILES,IkBa stabilization activation,Potency
CCCNC(=O)c1ccc2c(c1)ncn2-c1ccccc1OC,inconclusive: 7.24% [signal inhibitor],
COc1ccc(C2C(C#N)=C(N)Oc3n[nH]c(C)c32)cc1Cn1nnc2ccccc21 (stereo not drawn),,"inconclusive: 12.6 µM [signal inhibitor, partial curve]"
CCc1nc2ccccc2c(C(=O)OCC(=O)Nc2ccc(S(=O)(=O)N3CCOCC3)cc2)c1C,inconclusive: 10.3% [signal inhibitor],
Cc1cc(C)c(S(=O)(=O)Nc2ccc3oc4c(c3c2)CCCC4)cc1C,inconclusive: 6.24% [signal inhibitor],
CC(CNC(=O)CCn1c(=O)c2cccn2c2ccc(F)cc21)c1ccccc1 (stereo not drawn),inconclusive: 1.61% [signal inhibitor],
Cc1nc2c(c(C)c1CCC(=O)N1CCN(c3ccccc3)CC1)c(=O)n(C)c(=O)n2C,inactive: -0.587%,
COc1ccc(C(=O)c2ccc(N(C)C)cc2)c(OC)c1,,"inconclusive: 6.31 µM [signal inhibitor, partial curve]"
CC1(C)O[C@@H]2C[C@H]3[C@H]4C[C@H](F)C5=CC(=O)CC[C@]5(C)[C@@H]4[C@H](O)C[C@]3(C)[C@]2(C(=O)CO)O1,"inconclusive: 9.39% [signal activator] [at 25.6 µM, scaled: untreated 0%, proteasome inhibitor 100%]",
COc1ccc(CCNC(=O)C2CC(=O)N(CCc3ccccc3)C2)cc1OC (stereo not drawn),inactive: 1.39%,
O=C(Nc1cccc(Cl)c1Cl)c1cc(S(=O)(=O)N2CCCCC2)ccc1F,inactive: 3.09%,
CN(C)c1ccc(NC(=O)CCCc2ccccc2)cc1,inactive: -3.77%,
CCCOc1ccc(C2c3c(oc4ccccc4c3=O)C(=O)N2c2ccc(C)cn2)cc1OCC (stereo not drawn),inactive: -2.22%,
CCOC(=O)c1ccc(CN(Cc2ccc(F)cc2)S(=O)(=O)c2ccc(F)cc2)cc1,inconclusive: 1.7% [signal inhibitor],
O=C(Nc1ccc(C(F)(F)F)cc1)c1cc(S(=O)(=O)NC2CCCCCC2)ccc1F,inconclusive: 3.4% [signal inhibitor],
Cc1ccc(C)c(NC(=O)Nc2nnc(N(CC(C)C)CC(C)C)s2)c1,inconclusive: 0.498% [signal inhibitor],
CCOc1cccc2sc(NC(=O)c3ccc(S(=O)(=O)N4CCCc5ccccc54)cc3)nc12,inconclusive: 6.95% [signal inhibitor],
Cc1ccccc1S(=O)Cc1ccc(C(=O)NC2CCCCCC2)o1 (stereo not drawn),inconclusive: -2.36% [signal inhibitor],
CCC(=O)c1ccc2c(c1)N(CCCN(C)C)c1ccccc1S2,inactive: -10.4%,
O=C(Cn1cc(SCc2cccc(F)c2)c2ccccc21)N1CCCC1,inconclusive: 5.65% [signal inhibitor],
Cc1ccc2c(CNCc3cccc(Cl)c3)c(C(=O)O)n(Cc3ccc(F)cc3Cl)c2c1,inconclusive: -1.14% [signal inhibitor],
Cc1ccc(C(=O)Nc2ccc3nc(SCC(=O)N4CCc5ccccc54)sc3c2)cc1,inactive: 1.15%,
COCCCNC(=O)c1cn(CC(C)C)c(=O)c2c1c1ccccc1n2C,inactive: -0.245%,
COc1ccc(CCNc2oc(COc3ccc(Br)cc3)nc2C#N)cc1OC,inconclusive: -10.2% [signal inhibitor],

SMILES,IkBa stabilization activation,Potency
COc1cc(OC)c(NS(=O)(=O)c2cc3c(cc2C)NC(=O)CO3)cc1Cl,inconclusive: -1.11% [signal inhibitor],
O=C(Nc1nc2c(s1)CCCC2)c1ccc2ncsc2c1,inconclusive: 9.2% [signal inhibitor],
Cc1nn2c3c(cnc2c1-c1ccccc1)C(=O)CC(c1ccco1)C3 (stereo not drawn),inactive: -2.78%,
CC(=O)c1ccc(N2CCN(C(=O)C3CCN(S(=O)(=O)c4ccc(Br)s4)CC3)CC2)cc1,inconclusive: 16.9% [signal inhibitor],
COCCn1c(CNC(=O)c2cccc(N(C)C)c2)nc2cccnc21,inactive: -1.1%,
Cc1cnc(CNc2ncncc2-c2ccc(N(C)C)cc2)cn1,"inactive: 2.34% [at 11.4 µM, scaled: untreated 0%, proteasome inhibitor 100%]",
Cc1ccc(NC(=O)c2nc(S(C)(=O)=O)ncc2N(Cc2ccco2)Cc2ccccc2F)c(C)c1,inconclusive: 2.43% [signal inhibitor],
CCN(Cc1ccccc1)C(=O)CCS(=O)(=O)c1cc2c(cc1Cl)NC(=O)CO2,inconclusive: 3.13% [signal inhibitor],
O=C(Nc1ccccc1)Nc1ccccc1C(=O)NCc1ccco1,,"inconclusive: 7.94 µM [signal inhibitor, partial curve]"
CC(=O)N1CCN(c2ccc(Nc3ncnc4c3oc3ccccc34)cc2)CC1,inconclusive: -7.32% [signal inhibitor],
Cc1ccc(CNC(=O)c2nnn(-c3cccc(C)c3)c2N)cc1,inconclusive: 12.7% [signal inhibitor],
COCCNC(=O)Cn1nc(-c2ccccc2)c2ccccc2c1=O,inconclusive: 1.45% [signal inhibitor],
Cc1cccc(OC(=O)CSc2nnc(-c3ccc4c(c3)OCO4)o2)c1C,inactive: 1.64%,
COc1cc(NC(=O)CN2C(=O)CCc3cc(Br)ccc32)cc(OC)c1OC,inconclusive: 6.43% [signal inhibitor],
CCOC(=O)c1nnn(-c2nonc2N)c1CNc1ccccc1,inactive: 1.26%,
Cc1cccc(-c2noc(-c3cc(C(C)C)[nH]n3)n2)c1,,"inconclusive: 25.1 µM [signal inhibitor, partial curve]"
CC(=O)N1c2ccccc2C(=O)C1N1CCN(c2cccc(Cl)c2)CC1 (stereo not drawn),inconclusive: 0.535% [signal inhibitor],
CCN(CC)c1ccc(C(=S)N2CCN(c3ccccc3)CC2)cc1,inactive: 2.7%,
Cc1cc2cc(CN(Cc3ccc4c(c3)OCO4)Cc3nnnn3C3CCCC3)c(=O)[nH]c2cc1C,inconclusive: 1.91% [signal inhibitor],
COCCOC(=O)c1[nH]c2c(c1C)C(=O)CC(c1ccc(F)cc1)C2 (stereo not drawn),inactive: -1.26%,
Cc1ccc(Cn2c(CCNC(=O)c3cccc(C)c3)nc3ccccc32)cc1,inconclusive: 4.45% [signal inhibitor],
COc1ccc(Cl)cc1NC(=O)CSC1=Nc2ccccc2C2=NC(CCC(=O)NCc3ccco3)C(=O)N12 (stereo not drawn),inconclusive: 2.9% [signal inhibitor],
